According to publication PMC6212790:
The list shows a part of the results. At the low end of the ranking, values are background and their order means little.

What follows are sequences tested against T1, GST-Rok (full length) (UniProt O34857) (assay: protein binding microarray). Settings: Rok is a gene silencer of Bacillus subtilis; high values mean tight binding; most listed sequences are background and not binding sites; double strand, one strand shown.
T1 sequence: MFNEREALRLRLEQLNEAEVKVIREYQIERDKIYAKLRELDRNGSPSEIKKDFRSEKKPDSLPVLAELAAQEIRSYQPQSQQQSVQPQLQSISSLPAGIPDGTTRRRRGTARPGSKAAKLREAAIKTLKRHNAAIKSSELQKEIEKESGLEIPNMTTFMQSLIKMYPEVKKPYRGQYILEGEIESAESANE
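Note: rank score from −0.5 (least bound) to 0.5 (best bound).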

Sequence	binding signal [E-score]
CAAGCCCC	-0.383
GCAGTGAA	-0.154
AACGGCTT	-0.0354
GGTTATTA	0.179
ATAACTTC	0.244
CGCTCGCC	-0.219
TACCCCGA	-0.0867
TATCACAA	0.215
AGGAGTCG	-0.17
AACTGTAC	0.188
TCACGGCA	-0.0169
ACAATCAA	0.0639
GCTAAGCA	-0.155
CGGGCTAG	-0.0191
CTCTATGA	0.00914
ACGGCTAC	-0.169
TAGCTAGA	0.254
AGAGTATG	0.059
AGTGATCG	-0.00928
ATTGTGCG	0.222
AACAGGCT	-0.172
ATAAGCAT	0.162
CCGCATTC	-0.117
TCATTCGA	0.0561

Sequence	binding signal [E-score]
AGGATCGA	0.0686
GAAGTGTA	0.175
AACGCGGT	-0.127
AGTGTAGG	0.07
AGCGATGA	0.00993
TCGTAGAA	0.131
ACCTTGAT	0.0336
GTACCGGA	0.0443
ATCTATGC	0.0906
ACCCCGAA	-0.31
AGACACCG	-0.195
AGTCAGAC	-0.25
AGCAAATC	0.0475
ATCACACC	-0.038
GGTATAGA	0.222
AGTCTCTC	-0.161
ATATTTGA	0.228
CGTCTTCC	-0.3
CCTCCCTC	-0.196
CTCCCCAA	-0.19
CTCTAATC	0.152
CGTCCAGA	-0.148
ATAACGAG	0.141
CCTGCGAA	-0.196

Sequence	binding signal [E-score]
ATTGCAGG	-0.261
CCCGGCTA	-0.11
ACTCAGCT	0.0634
TCTACCAA	0.264
CGTTACCA	0.233
GTCAGGCA	-0.141
CAGCTTCG	-0.109
GAAGGAAA	-0.186
TCGGCCGA	-0.217
GCAAAGGC	-0.323
AAGTCTGC	-0.0903
TACTGTAA	0.323
AGGGTGCG	-0.191
AAAACAGA	0.0936
AAGGGGCA	-0.364
TGAGTGCA	-0.103
CGGCAAAA	-0.156
ACCAAACT	0.19
ACCCGCAT	-0.226
ACCTGCCA	-0.24
GGCTAAAC	-0.161
TATTAGAA	0.269
AGACGAGG	-0.304
GGAATCCC	-0.162

Sequence	binding signal [E-score]
CAACCGGA	-0.189
ACCGTGGA	-0.0296
ACAGAAGC	-0.117
TCAAGAAA	-0.045
GTCCGGTA	0.0485
ACTTGGTA	0.0899
CCCAGGAC	-0.165
CATGACGG	-0.0168
AAAAGCAT	-0.159
CCGTATTC	0.0371
CGGATAGC	0.000481
GCACTGAA	-0.281
ACCATCAC	0.0375
CGCAAATA	0.166
CTCCGAAC	-0.0538
CATTTCGA	-0.0105
AAGAGGCG	-0.215
AAACGTAT	0.193
CCTAAGGC	-0.149
GAATACTA	0.295
GAAAGGAC	-0.162
TCTGCAGA	0.136
